# The other results are listed elsewhere or left out.
# Columns and labels:
# Test in all cases: glycan array binding signal (z-score within array); higher = stronger binding
# Details in all cases: glycan notation: IUPAC condensed, linker removed; mutation: R186I
# [1] = molecular target: Fuc(a1-2)[GalNAc(a1-3)]Gal(b1-4)GlcNAc(b1-3)Gal(b1-4)GlcNAc
# Outline: (§1)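 Columns mapping to the same glycan were averaged after glycan names were converted to IUPAC-condensed notation. The data come from 3228 arrays in the Consortium for Functional Glycomics database, limited to those with an available protein sequence. Binding is reported as a within-array Z-score averaged across arrays of one protein sequence and across linkers.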
# [2] = molecular target: Fuc(a1-2)[GalNAc(a1-3)]Gal(b1-4)GlcNAc(b1-3)Gal(b1-4)GlcNAc(b1-3)Gal(b1-4)GlcNAc
# Outline: as §1
# [3] = molecular target: Fuc(a1-2)[GalNAc(a1-3)]Gal(b1-4)[Fuc(a1-3)]GlcNAc
# Outline: as §1
# [4] = molecular target: Fuc(a1-2)[GalNAc(a1-4)]Gal(b1-4)GlcNAc
# Outline: as §1
# [5] = molecular target: Fuc(a1-2)[GalNAc(b1-3)]Gal
# Outline: as §1
# Fuc(a1-3)GlcNAc = molecular target: Fuc(a1-3)GlcNAc
# Outline: as §1
# [6] = molecular target: Fuc(a1-3)[Gal(b1-4)]Glc6S
# Outline: as §1
# [7] = molecular target: Fuc(a1-3)[Gal(b1-4)]GlcNAc
# Outline: as §1
# [8] = molecular target: Fuc(a1-3)[Gal(b1-4)]GlcNAc(b1-2)Man(a1-3)[Fuc(a1-3)[Gal(b1-4)]GlcNAc(b1-2)Man(a1-6)]Man(b1-4)GlcNAc(b1-4)GlcNAc
# Outline: as §1
# [9] = molecular target: Fuc(a1-3)[Gal(b1-4)]GlcNAc(b1-3)Gal(b1-3)[Fuc(a1-4)]GlcNAc
# Outline: as §1
# [10] = molecular target: Fuc(a1-3)[Gal(b1-4)]GlcNAc(b1-3)GalNAc
# Outline: as §1
# [11] = molecular target: Fuc(a1-3)[Gal(b1-4)]GlcNAc(b1-4)Gal(b1-4)[Fuc(a1-3)]GlcNAc
# Outline: as §1
# [12] = molecular target: Fuc(a1-3)[Gal(b1-4)]GlcNAc(b1-4)Gal(b1-4)[Fuc(a1-3)]GlcNAc(b1-4)Gal(b1-4)[Fuc(a1-3)]GlcNAc
# Outline: as §1
# [13] = molecular target: Fuc(a1-3)[Gal(b1-4)]GlcNAc(b1-6)[Gal(b1-3)GlcNAc(b1-3)]Gal(b1-4)Glc
# Outline: as §1
# [14] = molecular target: Fuc(a1-3)[Gal(b1-4)]GlcNAc6S
# Outline: as §1
# [15] = molecular target: Fuc(a1-3)[Gal3S(b1-4)]GlcNAc
# Outline: as §1
# [16] = molecular target: Fuc(a1-3)[Gal3S(b1-4)]GlcNAc6S
# Outline: as §1
# [17] = molecular target: Fuc(a1-3)[GalNAc(b1-4)]GlcNAc
# Outline: as §1
# Fuc(a1-4)GlcNAc = molecular target: Fuc(a1-4)GlcNAc
# Outline: as §1
# Fuc(b1-3)GlcNAc = molecular target: Fuc(b1-3)GlcNAc
# Outline: as §1
# Gal(a1-2)Gal = molecular target: Gal(a1-2)Gal
# Outline: as §1
# Gal(a1-3)Gal = molecular target: Gal(a1-3)Gal
# Outline: as §1
# Gal(a1-3)Gal(b1-3)GlcNAc = molecular target: Gal(a1-3)Gal(b1-3)GlcNAc
# Outline: as §1
# [18] = molecular target: Gal(a1-3)Gal(b1-3)GlcNAc(b1-2)Man(a1-3)[Gal(a1-3)Gal(b1-3)GlcNAc(b1-2)Man(a1-6)]Man(b1-4)GlcNAc(b1-4)GlcNAc
# Outline: as §1
# [19] = molecular target: Gal(a1-3)Gal(b1-3)[Fuc(a1-4)]GlcNAc(b1-2)Man(a1-3)[Gal(a1-3)Gal(b1-3)[Fuc(a1-4)]GlcNAc(b1-2)Man(a1-6)]Man(b1-4)GlcNAc(b1-4)GlcNAc
# Outline: as §1
# Gal(a1-3)Gal(b1-4)Glc = molecular target: Gal(a1-3)Gal(b1-4)Glc
# Outline: as §1
# Gal(a1-3)Gal(b1-4)GlcNAc = molecular target: Gal(a1-3)Gal(b1-4)GlcNAc
# Outline: as §1
# [20] = molecular target: Gal(a1-3)Gal(b1-4)GlcNAc(b1-3)GalNAc
# Outline: as §1
# [21] = molecular target: Gal(a1-3)Gal(b1-4)[Fuc(a1-3)]GlcNAc
# Outline: as §1
# [22] = molecular target: Gal(a1-3)Gal(b1-4)[Fuc(a1-3)]GlcNAc(b1-2)Man(a1-3)[Gal(a1-3)Gal(b1-4)[Fuc(a1-3)]GlcNAc(b1-2)Man(a1-6)]Man(b1-4)GlcNAc(b1-4)GlcNAc
# Outline: as §1
# Gal(a1-3)GalNAc = molecular target: Gal(a1-3)GalNAc
# Outline: as §1
# [23] = molecular target: Gal(a1-3)[Gal(a1-4)]Gal(b1-4)GlcNAc
# Outline: as §1
# [24] = molecular target: Gal(a1-4)Gal(b1-3)GlcNAc(b1-2)Man(a1-3)[Gal(a1-4)Gal(b1-3)GlcNAc(b1-2)Man(a1-6)]Man(b1-4)GlcNAc(b1-4)GlcNAc
# Outline: as §1
# Gal(a1-4)Gal(b1-4)Glc = molecular target: Gal(a1-4)Gal(b1-4)Glc
# Outline: as §1
# Gal(a1-4)Gal(b1-4)GlcNAc = molecular target: Gal(a1-4)Gal(b1-4)GlcNAc
# Outline: as §1
# [25] = molecular target: Gal(a1-4)Gal(b1-4)GlcNAc(b1-2)Man(a1-3)[Gal(a1-4)Gal(b1-4)GlcNAc(b1-2)Man(a1-6)]Man(b1-4)GlcNAc(b1-4)GlcNAc
# Outline: as §1
# [26] = molecular target: Gal(a1-4)Gal(b1-4)GlcNAc(b1-3)Gal(b1-4)Glc
# Outline: as §1
# Gal(a1-4)GlcNAc = molecular target: Gal(a1-4)GlcNAc
# Outline: as §1
# Gal(a1-6)Glc = molecular target: Gal(a1-6)Glc
# Outline: as §1
# Gal(b1-2)Gal = molecular target: Gal(b1-2)Gal
# Outline: as §1
# Gal(b1-3)Gal = molecular target: Gal(b1-3)Gal
# Outline: as §1
# Gal(b1-3)Gal(b1-4)GlcNAc = molecular target: Gal(b1-3)Gal(b1-4)GlcNAc
# Outline: as §1
# [27] = molecular target: Gal(b1-3)Gal(b1-4)GlcNAc(b1-2)Man(a1-3)[Gal(b1-3)Gal(b1-4)GlcNAc(b1-2)Man(a1-6)]Man(b1-4)GlcNAc(b1-4)GlcNAc
# Outline: as §1
# Gal(b1-3)GalNAc = molecular target: Gal(b1-3)GalNAc
# Outline: as §1
# [28] = molecular target: Gal(b1-3)GalNAc(a1-3)[Fuc(a1-2)]Gal(b1-4)Glc
# Outline: as §1
binder,measurement,setting,value
"Gal 3 (Homo sapiens), P17931 (protein) MADNFSLHDALSGSGNPNPQGWPGAWGNQPAGAGGYPGASYPGAYPGQAPPGAYPGQAPPGAYHGAPGAYPGAPAPGVYPGPPSGPGAYPSSGQPSAPGAYPATGPYGAPAGPLIVPYNLPLPGGVVPRMLITILGTVKPNANILDFQRGNDVAFHFNPRFNENNRRVIVCNTKLDNNWGREEIQSVFPFESGKPFKIQVLVEPDHFKVAVNDAHLLQYNHRVKKLNEISKLGISGDIDLTSASYTMI",glycan array binding signal (z-score),[1],-0.13
same,glycan array binding signal (z-score),[2],-0.113
same,glycan array binding signal (z-score),[3],-0.143
same,glycan array binding signal (z-score),[4],-0.085
same,glycan array binding signal (z-score),[5],-0.014
same,glycan array binding signal (z-score),Fuc(a1-3)GlcNAc,-0.193
same,glycan array binding signal (z-score),[6],-0.192
same,glycan array binding signal (z-score),[7],-0.124
same,glycan array binding signal (z-score),[8],-0.092
same,glycan array binding signal (z-score),[9],-0.109
same,glycan array binding signal (z-score),[10],-0.119
same,glycan array binding signal (z-score),[11],-0.144
same,glycan array binding signal (z-score),[12],-0.194
same,glycan array binding signal (z-score),[13],-0.153
same,glycan array binding signal (z-score),[14],-0.183
same,glycan array binding signal (z-score),[15],-0.147
same,glycan array binding signal (z-score),[16],-0.154
same,glycan array binding signal (z-score),[17],-0.127
same,glycan array binding signal (z-score),Fuc(a1-4)GlcNAc,-0.177
same,glycan array binding signal (z-score),Fuc(b1-3)GlcNAc,-0.096
same,glycan array binding signal (z-score),Gal(a1-2)Gal,-0.175
same,glycan array binding signal (z-score),Gal(a1-3)Gal,-0.171
same,glycan array binding signal (z-score),Gal(a1-3)Gal(b1-3)GlcNAc,-0.172
same,glycan array binding signal (z-score),[18],-0.169
same,glycan array binding signal (z-score),[19],-0.175
same,glycan array binding signal (z-score),Gal(a1-3)Gal(b1-4)Glc,-0.104
same,glycan array binding signal (z-score),Gal(a1-3)Gal(b1-4)GlcNAc,-0.191
same,glycan array binding signal (z-score),[20],-0.022
same,glycan array binding signal (z-score),[21],-0.188
same,glycan array binding signal (z-score),[22],-0.192
same,glycan array binding signal (z-score),Gal(a1-3)GalNAc,-0.161
same,glycan array binding signal (z-score),[23],-0.182
same,glycan array binding signal (z-score),[24],-0.147
same,glycan array binding signal (z-score),Gal(a1-4)Gal(b1-4)Glc,-0.173
same,glycan array binding signal (z-score),Gal(a1-4)Gal(b1-4)GlcNAc,-0.127
same,glycan array binding signal (z-score),[25],-0.177
same,glycan array binding signal (z-score),[26],-0.159
same,glycan array binding signal (z-score),Gal(a1-4)GlcNAc,-0.161
same,glycan array binding signal (z-score),Gal(a1-6)Glc,-0.185
same,glycan array binding signal (z-score),Gal(b1-2)Gal,-0.111
same,glycan array binding signal (z-score),Gal(b1-3)Gal,-0.177
same,glycan array binding signal (z-score),Gal(b1-3)Gal(b1-4)GlcNAc,-0.192
same,glycan array binding signal (z-score),[27],11.1
same,glycan array binding signal (z-score),Gal(b1-3)GalNAc,-0.143
same,glycan array binding signal (z-score),[28],-0.162
